In PubChem BioAssay AID1508623 (National Center for Advancing Translational Sciences (NCATS), 2021):
Hit rate of the full screen: of about 48,000 compounds, about 450 (0.94%) were called active. About 19% were inconclusive and are not listed. Calls follow the shape of the dose curve; as a rule, active = well fitted inhibition curve with a large enough effect; inconclusive = small, poorly fitted or top-dose-only effect; inactive = no such curve, though single readings can be large or run the other way. Some of the results follow.

Assay: Primary qHTS for Identification of Small Molecule Inhibitors of Huntingtin Promoter Activity; also: nearly all actives have a fitted effect of over 50% in size
Details: HEK293 HTT promoter firefly luciferase reporter (activity 0% = vehicle and -100% = no light), 24 h; series mostly up to 57.5 µM; activity change, negative = inhibition: at the top concentration
Outline: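 HEK293 luciferase promoter-reporter cells (2,500/well) plated 24 h, then compounds added at up to 57.5 uM final for 24 h at 37 °C. Firefly luminescence by Dual-Glo, normalized to vehicle (0%) and zero RLU (-100%).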

Activity change, negative = inhibition, inactive:
Fc1ccc(-c2cc(-c3ccc(F)cc3)c3c(n2)-c2cc(F)ccc2OC3)cc1 -17.3%
Fc1ccc(Nc2nc(-c3cccc(Cl)c3)c3c(n2)-c2ccccc2OC3)c(F)c1 -12.8%
CCc1ccc(NC(=O)CSc2nc(-c3ccc(C)cc3)nc3c2Cc2c(CO)cnc(C)c2O3)cc1 -12.9%
CCOc1ccc2nc(N3CCCC(C(=O)Nc4ccccc4CC)C3)sc2c1 (configuration not stated) 53.7%
COc1cccc(-c2ccc(NC(=O)C3=C(C(=O)O)CCC3)c(F)c2)c1 19.8%
O=C(O)Cc1ccc2c(c1)C(=O)c1ccccc1CO2 18.6%
CCc1ccc(-c2nc3cc(NC(=O)c4ccc(C)c(C)c4)ccc3o2)cc1 2.27%
Cc1c(NC(=O)c2cccs2)cccc1-c1nc2cc(Cl)ccc2o1 -15.3%
COc1ccc(S(=O)(=O)n2nc(-c3ccco3)nc2NCc2ccc(C(C)C)cc2)cc1 -26.7%
CCOc1ccc(C(=O)Nc2ccc(OCc3cc(=O)n4cccc(C)c4n3)cc2)cc1 -10.2%
CCc1nnc2c3ccccc3nc(Nc3cc(C)cc(C)c3)n12 -17%
COc1ccc(S(=O)(=O)NCc2cccn2Cc2cc(C)ccc2C)cc1OC -22.8%
CC(=O)NCCNC(=O)CCCc1nnc2n(CC(C)C)c(=O)c3sccc3n12 -13.7%
Cc1nc2ccccc2n1Cc1ccc(Cl)cc1 -24.6%
COc1cccc(NC(=O)Cn2c(=O)n(Cc3ccc(F)cc3)c(=O)c3sc4ccccc4c32)c1 -17.4%
O=C(CCCCCCNC(=O)c1cnc(N(c2ccccc2)c2ccccc2)nc1)NO 193%
COc1ccc(NC(=O)[C@H](Cc2ccccc2)N2Cc3ccccc3C2=O)cc1OC -13.4%
COc1cccc(NC(=O)Cn2c(=O)n(Cc3ccc4c(c3)OCO4)c(=O)c3oc4ccccc4c32)c1 0.13%
Cc1ccc(-n2ncc(C(=O)NCCN3CCN(C)CC3)c2C2CCN(C(=O)OC(C)(C)C)CC2)cc1C 0.581%
CC(=O)c1cccc(NS(=O)(=O)c2c(C(=O)N3CCCCCC3)c(C)n(C)c2C)c1 -2.12%
CCOc1ccc(CNC(=O)Cn2c(=O)c3cccn3c3cccnc32)cc1 -10.1%
CCc1ccc(CNC(=O)CCn2nc(C)c3c(C)n(-c4ccccc4)nc3c2=O)cc1 7.4%
COc1cc(NC(=O)c2noc3c2CC(C)CC3)c(OC)cc1Cl (configuration not stated) 0.637%
O=c1[nH]c(=O)n([C@H]2C[C@@H](O)[C@@H](CO)O2)cc1I 23.2%
COc1ccc(-n2c(SCCC(C)C)nc3sc4c(c3c2=O)CC(C(C)C)OC4)cc1 (configuration not stated) -1.34%
Cc1nn(CCCC(=O)Nc2ccccc2C(F)(F)F)c(=O)c2nn(-c3ccccc3)c(C)c12 -27.5%
Cc1nn2c(-c3ccccc3)cc(-c3ccccc3)nc2c1-c1ccc(Cl)cc1 2.82%
O=C(Nc1ccccc1)c1cccc(N2CCCS2(=O)=O)c1 -18.5%
Cc1cc(C)n2nc(CNC(=O)c3ccc(Cl)cc3)nc2n1 6.8%
COc1ccc(C(CC(=O)Nc2ncccc2C)N2Cc3ccccc3C2=O)cc1OC (configuration not stated) -12.3%
Cc1ccc(Cl)cc1N1CCN(C(=O)c2ccc3c(Cl)c4c(nc3c2)CCCC4)CC1 -7.88%
O=C(Cn1c(=O)ccc2cc(S(=O)(=O)N3CCCC3)ccc21)Nc1ccccc1 -7.85%
COc1ccc(-c2nc(CNC(=O)Nc3ccccc3)c(C)o2)c(OC)c1 -13.6%
CCn1ccc2c(OCC(=O)Nc3ccc(OC)cc3OC)cccc2c1=O 0%
O=c1ccc(-c2ccccc2)nn1Cc1c(F)cccc1Cl -21.6%
CCn1cc(C(=O)NCCC(C)C)c(=O)c2cc(S(=O)(=O)N(C)C3CCCCC3)ccc21 -5.57%
CCC(=O)N1c2ccccc2CC1C(=O)NCCCN1CCN(c2ccc(OC)cc2)CC1 (configuration not stated) 6.42%
CC1CCCCN1c1cc2c(cc1F)c(=O)c(S(=O)(=O)c1ccccc1)cn2Cc1ccccc1 (configuration not stated) -12.9%
O=C(Cn1c(-c2cccs2)cc2cc(F)ccc21)NCCc1ccc(Cl)cc1 -11.8%
CCCCOc1ccc(CNC(=O)c2cnc3sc(N4CCCC4)nn3c2=O)cc1 -8.59%
Cc1c(Cl)cccc1NC(=O)C(=O)NCCc1csc2nc(-c3ccccc3F)nn12 -30.3%
COc1ccccc1Nc1nc(C)nc(N)c1S(=O)(=O)c1ccccc1 -8.74%
Cc1nc2c3cccnc3nn2c(C)c1CCC(=O)NCc1ccccc1 -25.1%
CCN(CC)S(=O)(=O)c1ccc2c(c1)nc(CN(C)C(=O)Nc1ccc(C)c(Cl)c1)n2C -26.6%
Cc1ccc(C)c(NC(=O)c2cc(S(=O)(=O)NCc3ccccc3)ccc2F)c1 -26.6%
COc1ccc(Nc2ncc(C(=O)Nc3cccc(Cl)c3)c3ccccc23)cc1 -6.1%
CCc1ccc(NC(=O)C(=O)NCC(c2ccc3c(c2)OCO3)N2CCN(C)CC2)cc1 (configuration not stated) -15.7%
Cc1ccc(OCC(=O)NCC2(N3CCN(C)CC3)CCCCC2)cc1 -2.92%
CC(C)CCNC(=O)c1cnc2sc(N3CCCCCC3)nn2c1=O -25.9%
COc1ccc(CNC(=O)c2ccc(Cn3c(=O)c4cccn4c4cccnc43)cc2)c(OC)c1 -2.4%
Cc1ccc(O)c(NC(=O)c2cc(-c3ccc(F)cc3)no2)c1 30.5%
COc1ccc(-n2nc3c(N4CCC(C(=O)N5CCC(C)CC5)CC4)nnc(C)c3c2C)cc1 -10.9%
O=C(C1CCC1)N1CCCc2cc(S(=O)(=O)N3CCN(c4cccc(Cl)c4)CC3)ccc21 -16.7%
Cc1ccc(C)c(NC(=O)C(=O)NCCCN2CCOCC2)c1 -11.9%
O=C(NCCCN1CCN(c2ccccc2)CC1)c1sc2ncccc2c1-n1cccc1 -25.4%
CCOc1ccc(CCNC(=O)c2cnc3c(-c4ccc(F)cc4)c(C)nn3c2C)cc1 -16.1%
Nc1ncc(S(=O)(=O)NCc2ccccc2)cn1 -3.21%
COc1cc(S(=O)(=O)NCCc2c(C)[nH]c3ccc(C)cc23)ccc1Br -20.1%
COc1ccc(C(=O)c2cn(Cc3ccccc3)c3ccccc3c2=O)cc1OC -26%
COc1ccc(CN(C)c2ccc(-c3nc(-c4ccc(OC)c(OC)c4)no3)cc2[N+](=O)[O-])cc1 -5.68%
COc1cccc(-c2nnc(SCC(=O)N(C)C3CCCCC3)o2)c1 7.76%
CCOc1ccccc1CNCc1c(C(=O)O)c(C)n(Cc2ccc(C)cc2)c1C -8.45%
CN1CCc2nc3sc(C(=O)c4ccc(F)cc4)c(N)c3cc2C1 14.1%
CN1C(=O)c2cccc3c(S(=O)(=O)Nc4cccc(C(=O)O)c4)ccc1c23 -3.11%
CCN(CC)S(=O)(=O)c1ccc(OC)c(NC(=O)c2sc3ccccc3c2Cl)c1 -14.6%
Cc1ccc2c(c1)c1c(c(=O)n(Cc3ccccc3)c(=O)n1Cc1ccccc1F)n2C -8.86%
Cc1cccc(NC(=O)c2oc3ccccc3c2NC(=O)c2cc(=O)c3ccccc3o2)c1 -17.5%
CCOc1ccc(N2CC(NC(=O)c3ccc(Cl)cc3)CC2=O)cc1 (configuration not stated) -6.57%
CCOC(=O)N1CCc2c(sc3c2c(=O)n(Cc2ccccc2)c(=O)n3CC(=O)Nc2ccc(F)cc2)C1 -16.4%
NC(CO)(CO)CO -1.57%
CNC(=O)CN1C(=O)COc2ccc(S(=O)(=O)N3CCCCCC3)cc21 0.572%
O=C(CNC(=O)c1ccc(F)cc1)OCc1cc(=O)n2ccsc2n1 -3.85%
COc1ccc(C(=O)Nc2ccc3oc(-c4cccc5c(Br)cccc45)nc3c2)cc1 -0.724%
Cc1c(Cl)cccc1NC(=O)C(=O)NCCc1csc(-c2ccc(C(F)(F)F)cc2)n1 -3.87%
Cc1ccccc1Cn1c(CN2CCC(C(=O)NCc3ccc(Cl)cc3)CC2)cc2ccccc21 14%
O=S1(=O)c2ccccc2N(Cc2ccccc2F)c2ccccc21 -5.9%
COc1ccc(CCNC(=O)c2ccc(-n3c(C)cc4c3CCC(C)C4)cc2)cc1OC (configuration not stated) 4.81%
Cc1cc(C)c(OCC(=O)N(Cc2ccc(N(C)C)cc2)Cc2ccco2)c(C)c1 -28.4%
O=C(NCc1ccc2c(c1)OCO2)c1ccc2c(c1)N(Cc1c(F)cccc1Cl)C(=O)c1ccccc1S2 -18.3%
COc1ccc(C(=O)c2cn(CC(=O)Nc3cc(OC)cc(OC)c3)c3ccc(OC)cc3c2=O)cc1 -23%
COC(=O)c1ccccc1NC(=O)Cn1c(=O)n(CCC(=O)NCc2ccc3c(c2)OCO3)c(=O)c2ccccc21 5.35%
Cc1ccc(Cn2nc3n(c2=O)-c2cc(Cl)ccc2OC3)cc1 -9.32%
COc1ccc(-n2c(-c3cccc(F)c3)nc3c(cnn3-c3ccc(C)cc3)c2=O)cc1 -27.2%
Cc1ccc(-c2csc(-c3c(N)c(C(=O)c4ccc5c(c4)OCO5)n4ccccc34)n2)cc1 -0.19%
CCOC(=O)c1c(S(=O)(=O)N2CCC(C(=O)NCc3cccc(OC)c3)CC2)c(C)n(C)c1C -5.97%
Cc1cccc(N(C)C(=O)Cn2c(=O)oc3cc(S(=O)(=O)N4CCCCC4)ccc32)c1 -0.601%
COc1ccc(-c2nc3ccccc3o2)cc1NC(=O)Cc1ccc(Cl)cc1 24.5%
Cn1ccnc1SCC(=O)Nc1cccc(Br)c1 -2.17%
NC(=O)c1cc(S(=O)(=O)NCc2cccc(Br)c2)cs1 -34.8%
COC(=O)c1ccc(NC(=O)Cn2c(=O)oc3ccccc32)cc1 -4.24% [at 11.5 µM]
COc1ccc(C2CC(=O)c3cc(-c4nc(-c5cccc([N+](=O)[O-])c5)cs4)c(=O)n(-c4ccccc4N)c3C2)cc1 (configuration not stated) -10.8%
COc1ccc(N2CC(NC(=O)C3CCCCC3)CC2=O)cc1 (configuration not stated) -18.4%
CCn1c(SCC(=O)Nc2cc(C)ccc2F)nnc1-c1ccccc1O -11.2%
Clc1ccc(C(Cn2ccnc2)OCc2c(Cl)cccc2Cl)c(Cl)c1 (configuration not stated) -17.3%
CCOC(=O)CNC(=O)N1CCN(S(=O)(=O)c2ccc3c(ccn3C)c2)CC1 -8.18%
COc1ccc(CC(=O)N2CC(=O)Nc3ccc(F)cc3C2c2ccccc2)cc1 (configuration not stated) -22%
Cc1ccccc1CNC(=O)Cn1c(=O)c2cccn2c2cccnc21 0.865%
